The subject of one assay is HSkMC. In words: cytotoxicity call (relative viability < 0.9). To be noted: 10 µM.
The next assay relates to HepG2. As to the kind of experiment: cytotoxicity call (relative viability < 0.9). The following applies: 10 µM.
The test system of another assay is S. aureus RN4220. In words: growth inhibition call (relative growth <= 0.2). The following applies: 50 µM.

Some of the results follow.

Turning to `COc1cc2c(c(OC)c1OC)-c1ccc(OC)c(=O)cc1C(NC(C)=O)CC2` (configuration not stated), the cytotoxicity call in the assay on HSkMC is “inactive”. In the assay on HepG2, the cytotoxicity call was “active”. For the same compound, in the assay on S. aureus RN4220, the growth inhibition call is “inactive”.
In the case of `COc1cc(CCN)ccc1O`, the cytotoxicity call in the assay on HSkMC and in the assay with HepG2 was “inactive” each time. Besides, the growth inhibition call in the assay on S. aureus RN4220 was “inactive”.
On to `Cc1nc2c(=O)n(C)c(=O)nc-2n(C)n1`, for which the cytotoxicity call with HSkMC and in the assay on HepG2 was “active” each time. The growth inhibition call in the assay on S. aureus RN4220 was “inactive”.
As for `Cl.c1cncc(C2CCCCN2)c1` (configuration not stated), the cytotoxicity call in the assay with HSkMC and with HepG2 was “inactive” in each case. Besides, the growth inhibition call in the assay with S. aureus RN4220 is “inactive”.
As for `COc1cc2c(cc1OC)C(C)NCC2` (configuration not stated), the cytotoxicity call in the assay with HSkMC and in the assay with HepG2 was “inactive” throughout. Also, the growth inhibition call with S. aureus RN4220 was “inactive”.
As to `CNC(=O)CSP(=S)(OC)OC`, the cytotoxicity call with HSkMC and with HepG2 was “inactive” throughout. In addition, the growth inhibition call in the assay with S. aureus RN4220 is “inactive”.
Take `C1CC(NC2CCOCC2)CCO1`: the cytotoxicity call in the assay with HSkMC and in the assay with HepG2 was “inactive” throughout. The growth inhibition call in the assay on S. aureus RN4220 is “inactive”.
In the case of `CC(C)c1cccc2c1OCC[C@H](N)[C@@H]2O`, the cytotoxicity call with HSkMC and in the assay on HepG2 was “inactive” throughout. Further, in the assay with S. aureus RN4220, the growth inhibition call is “inactive”.
Regarding `CC(=O)OC1C(=O)C2(C)C(O)CC3OCC3(OC(C)=O)C2C(OC(=O)c2ccccc2)C2(O)CC(O)C(C)=C1C2(C)C` (configuration not stated), in the assay on HSkMC, the cytotoxicity call is “inactive”. The cytotoxicity call in the assay with HepG2 is “active”. For the same compound, in the assay with S. aureus RN4220, the growth inhibition call is “inactive”.
On to `COC(=O)C[C@@H]1CC[C@@H]2NC[C@H](O)COC[C@H]2O1`, for which the cytotoxicity call in the assay with HSkMC and with HepG2 was “inactive” each time. Also, in the assay with S. aureus RN4220, the growth inhibition call is “inactive”.
For the compound `C[C@@H]1CN([C@@H](C)CO)C(=O)CCCn2cc(nn2)CO[C@@H]1CN(C)C(=O)Oc1cccc2ccccc12`, the cytotoxicity call in the assay with HSkMC and with HepG2 was “inactive” throughout. Besides, in the assay on S. aureus RN4220, the growth inhibition call was “inactive”.
With `C[C@]12C(=O)OC(=O)[C@]1(C)[C@H]1CC[C@H]2O1`, the cytotoxicity call with HSkMC and with HepG2 was “active” throughout. For the same compound, the growth inhibition call in the assay with S. aureus RN4220 was “inactive”.
For the compound `O.O=c1ccc2cc(OC3OC(CO)C(O)C(O)C3O)c(O)cc2o1` (configuration not stated), the cytotoxicity call in the assay with HSkMC and with HepG2 was “inactive” throughout. Further, the growth inhibition call in the assay with S. aureus RN4220 was “inactive”.
Consider `CS(=O)(=O)N1CCO[C@]2(COCCN(Cc3ccncc3)C2)C1`, for which the cytotoxicity call in the assay on HSkMC and in the assay on HepG2 was “inactive” throughout. Moreover, the growth inhibition call with S. aureus RN4220 is “inactive”.
Take `C[C@@H]1CN([C@@H](C)CO)C(=O)c2c(c3ccccc3n2C)-c2ccccc2CO[C@H]1CN(C)C(=O)Oc1ccccc1`: the cytotoxicity call with HSkMC and in the assay with HepG2 was “inactive” throughout. Also, the growth inhibition call in the assay on S. aureus RN4220 is “inactive”.
`CC(C)(C)[C@]1(O)C[C@@H]2OC(=O)C[C@]23C(=O)O[C@@H]2OC(=O)[C@H](O)[C@]231`: the cytotoxicity call in the assay with HSkMC and in the assay on HepG2 was “inactive” each time. Moreover, in the assay with S. aureus RN4220, the growth inhibition call is “inactive”.
Consider `Cn1cnc(CCN)c1`, for which the cytotoxicity call with HSkMC and with HepG2 was “inactive” in each case. Also, in the assay with S. aureus RN4220, the growth inhibition call was “inactive”.
Take `COc1cc([C@@H](O)CN)ccc1O`: the cytotoxicity call in the assay with HSkMC and with HepG2 was “inactive” in each case. In the assay with S. aureus RN4220, the growth inhibition call is “inactive”.
In the case of `COC(=O)[C@H]1CNC(=O)C1`, the cytotoxicity call in the assay with HSkMC and with HepG2 was “inactive” in each case. For the same compound, in the assay on S. aureus RN4220, the growth inhibition call was “inactive”.
With `CN1C[C@@H](NC(=O)C2CC2)[C@H]2OCCC[C@H]21`, the cytotoxicity call with HSkMC and in the assay on HepG2 was “inactive” each time. For the same compound, the growth inhibition call in the assay on S. aureus RN4220 is “inactive”.
On to `C[C@@H]1C(=O)NC[C@@H]2CN(CC3CC3)C[C@@H]21`, for which the cytotoxicity call in the assay with HSkMC and with HepG2 was “inactive” each time. In addition, in the assay with S. aureus RN4220, the growth inhibition call is “inactive”.
In the case of `C[C@H](CO)N1C[C@H](C)[C@@H](CN(C)C(=O)Oc2cccc3ccccc23)OCc2cnnn2CCCC1=O`, the cytotoxicity call in the assay on HSkMC and in the assay with HepG2 was “inactive” each time. Besides, in the assay on S. aureus RN4220, the growth inhibition call is “inactive”.
As to `CC(CCc1ccccc1)NC(C)C(O)c1ccc(O)cc1.Cl` (configuration not stated), the cytotoxicity call in the assay on HSkMC and in the assay on HepG2 was “inactive” each time. In the assay on S. aureus RN4220, the growth inhibition call is “inactive”.
As for `NC(=O)c1cn([C@@H]2O[C@H](CO)[C@@H](O)[C@H]2O)c2ncnc(N)c12`, in the assay with HSkMC, the cytotoxicity call was “inactive”. Further, in the assay on HepG2, the cytotoxicity call was “active”. Further, in the assay on S. aureus RN4220, the growth inhibition call was “inactive”.
Turning to `NCCc1ccncc1`, the cytotoxicity call in the assay on HSkMC and in the assay on HepG2 was “inactive” each time. For the same compound, the growth inhibition call in the assay on S. aureus RN4220 was “inactive”.
As for `Oc1c(Cl)c(Cl)c(Cl)c(Cl)c1Cl`, the cytotoxicity call in the assay with HSkMC and in the assay with HepG2 was “inactive” in each case. Also, the growth inhibition call in the assay on S. aureus RN4220 was “active”.
On to `N#C[C@@]12[C@H]3CC=C[C@@H]1N2CC3` (some centres not stated), for which the cytotoxicity call in the assay on HSkMC and with HepG2 was “inactive” each time. In addition, in the assay on S. aureus RN4220, the growth inhibition call is “inactive”.
With `CC(C)(C)OC(=O)N1C[C@H]2C[C@@H]1CN2`, the cytotoxicity call with HSkMC and in the assay on HepG2 was “inactive” each time. Moreover, the growth inhibition call in the assay with S. aureus RN4220 was “inactive”.
Regarding `C[N+]1(C)C2CCC1CC(OC(=O)C(CO)c1ccccc1)C2.O=[N+]([O-])[O-]` (configuration not stated), the cytotoxicity call in the assay on HSkMC and in the assay on HepG2 was “inactive” throughout. In addition, the growth inhibition call in the assay with S. aureus RN4220 was “inactive”.
Take `COc1ccc(N(C(=O)Oc2c(C)cccc2C)c2ccnc(Nc3ccc(N4CCN(C)CC4)cc3)n2)c(OC)c1`: the cytotoxicity call in the assay with HSkMC and in the assay on HepG2 was “inactive” each time. In addition, the growth inhibition call with S. aureus RN4220 was “inactive”.
As to `Cl.NCC(O)c1ccc(O)cc1` (configuration not stated), the cytotoxicity call with HSkMC and with HepG2 was “inactive” each time. Besides, in the assay on S. aureus RN4220, the growth inhibition call was “inactive”.
`Oc1ccc(Cl)cc1Cc1cc(Cl)ccc1O`: the cytotoxicity call with HSkMC is “inactive”. Besides, the cytotoxicity call in the assay on HepG2 is “active”. Moreover, the growth inhibition call in the assay with S. aureus RN4220 was “inactive”.
Turning to `NCC[C@H]1COc2ccccc2O1`, the cytotoxicity call in the assay with HSkMC and in the assay on HepG2 was “inactive” throughout. Besides, the growth inhibition call with S. aureus RN4220 is “inactive”.
As to `c1cc2c(cc1CN1CCNCC1)OCO2`, the cytotoxicity call in the assay on HSkMC (human skeletal muscle cells) and with HepG2 was “inactive” each time. In addition, the growth inhibition call in the assay on S. aureus RN4220 is “inactive”.
Turning to `Cc1ccc(OC(=O)N(C)C[C@@H]2OCc3ccccc3-c3c(n(C)c4ccccc34)C(=O)N([C@H](C)CO)C[C@H]2C)cc1`, the cytotoxicity call with HSkMC and in the assay with HepG2 was “inactive” in each case. The growth inhibition call in the assay with S. aureus RN4220 was “inactive”.
Turning to `Cc1cc(C(=O)N2CC[C@H]3[C@@H]2CCN3C)no1`, the cytotoxicity call in the assay with HSkMC and with HepG2 was “inactive” in each case. For the same compound, in the assay on S. aureus RN4220, the growth inhibition call was “inactive”.
For `COC(=O)[C@H]1O[C@@H]2C[C@H]3O[C@@H](n4cnc5c(N)ncnc54)[C@H](OC)[C@H]3O[C@@]2(O)[C@@H](O)[C@@H]1O`, the cytotoxicity call in the assay with HSkMC and in the assay with HepG2 was “inactive” throughout. Further, the growth inhibition call with S. aureus RN4220 was “inactive”.
As for `Cl.OC1CCCCC1N1CCC(c2ccccc2)CC1` (configuration not stated), the cytotoxicity call with HSkMC and in the assay on HepG2 was “inactive” in each case. Moreover, the growth inhibition call in the assay on S. aureus RN4220 is “inactive”.
With `CC[C@@H](C)C(=O)O[C@H]1[C@H](O)[C@H]2[C@@H](CN3C[C@@H](C)CC[C@@H]3[C@@]2(C)O)[C@H]2C[C@]34O[C@]5(O)[C@@H](OC(=O)[C@@](C)(O)[C@@H](C)O)CC[C@@]3(C)[C@@H]5[C@@H](OC(C)=O)[C@@H](OC(C)=O)[C@@H]4[C@@]21O`, the cytotoxicity call in the assay with HSkMC was “inactive”. For the same compound, the cytotoxicity call in the assay on HepG2 was “active”. For the same compound, the growth inhibition call in the assay on S. aureus RN4220 was “inactive”.

The values above are taken from the antibiotic and cytotoxicity screens of Wong et al. (2023).
